The whole screen tested about 43,000 compounds, of which about 200 (0.47%) were called active. Roughly 12% stayed inconclusive and do not appear here. Calls follow the shape of the dose curve; as a rule, active = well fitted cell-killing curve with a large enough effect; inconclusive = small, poorly fitted or top-dose-only effect, or effect the other way; inactive = flat fitted curve, though single readings scatter. The list shows a part of the results.
Assay: Cell viability qHTS assay in S16 Pmp22-F2sN cells; also: nearly all actives have a fitted effect of over 65% in size
Conditions: S16 Pmp22-F2sN Schwann cells (luciferase reporters placed in the Pmp22 gene) viability, CellTiter-Glo, 24 h; series mostly up to 57.5 µM; activity change, negative = cytotoxicity: at the top concentration
Outline: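 S16 Schwann cells carrying the Pmp22-F2sN reporter, seeded in 1536-well format, were exposed to library compounds for 24 h at 37C. Viability was read as CellTiter-Glo luminescence after 15 min at room temperature.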
% is scaled to controls: 0 for no effect and ±100 for the full control effect.

Compound | activity change, negative = cytotoxicity
O=C(C1CCCN(S(=O)(=O)c2cccs2)C1)N1CCN(c2cccc(Cl)c2)CC1 (stereo not drawn) | inactive: 5.45%
Cc1ccc(C)c(N2CCN(c3ncnc4c3nc3n4CCCCC3)CC2)c1 | inactive: 16.4%
Cn1nc(C(=O)N2CCN(c3ccc(Cl)cc3)CC2)c2c1-c1ccccc1SC2 | inactive: 17.7%
Cc1ccc(NC(=O)Cn2nnnc2-c2ccccc2N)cc1 | inactive: 1.37%
O=c1c2cc3c(cc2nc2sc(Nc4ccc(F)cc4F)nn12)OCO3 | inactive: 3.88%
COc1cccc(CNC(=O)CSc2ccc(-c3sc(-c4ccccc4)nc3C)nn2)c1 | inactive: -24.5%
COc1ccc(Cl)cc1NC(=O)N1CCC(CN2CCc3ccccc3C2)CC1 | inactive: 11.7%
CCOc1ccc(C(=O)NCC(c2ccco2)S(=O)(=O)c2ccc(C)cc2)cc1 (stereo not drawn) | inactive: -19.6%
Cn1c(=O)c2nc(SCC(=O)Nc3cc(Cl)ccc3Cl)n(C)c2n(C)c1=O | inactive: 0.101%
c1ccc(CNc2nc3ccccc3c3nc(-c4ccccc4)nn23)cc1 | inactive: 20.2%
NC(=O)CSc1nc2c(oc3ccccc32)c(=O)n1-c1ccccc1F | inactive: -2.76%
Cc1cccc(-c2nc(SCCCOc3ccccc3Cl)n3[nH]c(=O)cc3n2)c1 | inactive: 7.21%
CC(=O)Nc1ccc(Nc2ncnc3c2c(-c2ccccc2)cn3-c2ccccc2)cc1 | inactive: -24.4%
Cc1cc(C)cc(-n2c(SCC(=O)N3CCc4ccccc43)nc3c([nH]c4ccccc43)c2=O)c1 | inactive: -0.226%
O=C(Nc1ccc(F)c(Cl)c1)N1CCN(C(=O)c2nsc3ccccc23)CC1 | inactive: 1.52%
CCOc1ccc(OCC)c(NC(=O)C2CCCN(S(=O)(=O)c3ccc4c(c3)oc(=O)n4C)C2)c1 (stereo not drawn) | inactive: 15.5%
CCOc1ccc(CNC(=O)Cn2c(=O)c3cccn3c3ccc(F)cc32)cc1 | inactive: 12.6%
Cc1ccc(C)c(N2CCN(S(=O)(=O)c3ccc4oc(=O)c5ncn(C)c5c4c3)CC2)c1 | inactive: 5.9%
COc1cc(NC(=O)Cn2c(=O)n(Cc3ccccc3OC)c(=O)c3cccnc32)cc(OC)c1 | inactive: 11.5%
Cc1ccc(C(=O)COC(=O)c2cc(-c3ccccc3)nc3ccccc23)cc1C | inactive: 27.1%
COc1ccc(NC(=O)CCN2CCN(c3cccc(Cl)c3)CC2)cc1 | inactive: 10.7%
Cc1ccc(S(=O)(=O)c2nnn3c2nc(NCc2ccc(F)cc2)c2sccc23)cc1 | inactive: 1.09%
CCCNC(=O)c1ccc2c(c1)N(Cc1cccc(C)c1)C(=O)c1ccccc1S2 | inactive: -2.32%
COc1ccc(-c2nc(C)c(CCNC(=O)C(=O)Nc3cccc(F)c3)s2)cc1OC | inactive: -2.84%

Compound | activity change, negative = cytotoxicity
COc1ccccc1NC(=O)CCCOc1cc(=O)n(C)c2ccccc12 | inactive: -5.74%
CC1CCN(c2nc3c(S(=O)(=O)c4ccccc4)nnn3c3ccsc23)CC1 | inactive: 5.1%
Cc1ccc(C)c(Cn2c(=O)n(Cc3ccccc3)c(=O)c3c(C)c(C)sc32)c1 | inactive: -18.5%
CCOC(=O)CCn1nc(-c2ccc(C)cc2)c2ccccc2c1=O | inactive: -9.57%
CCc1ccccc1NC(=O)Nc1nnc(N2CCCC2)s1 | inactive: 7.79%
CCc1ccc(CN(Cc2ccco2)C(=O)c2ccccc2Cl)cc1 | inactive: -3.46%
O=C(CC1N=C2c3ccccc3N=C(SCC(=O)Nc3cccc(C(F)(F)F)c3)N2C1=O)NCc1cccs1 (stereo not drawn) | inactive: -8.73%
COc1ccc(CCNC(=O)c2nn(-c3ccc(C)cc3)c(=O)c3c2c2ccccc2n3C)cc1OC | inactive: 21.7%
COc1ccccc1CCNC(=O)c1ccc2c(c1)c(C)c(C)n2C | inactive: -3.47%
CCc1ccc(NCc2cc3cc4c(cc3n(CC(=O)Nc3ccc(Cl)cc3)c2=O)OCO4)cc1 | inactive: 9.97%
COc1ccc(NC(=O)CSc2ncc(-c3ccc(Cl)cc3)[nH]2)cc1OC | inactive: -1.62%
CCc1ccccc1NC(=O)Cn1nnc(C(=O)OC)c1C(=O)OC | inactive: -1.01%
CCN(CC)S(=O)(=O)c1ccc2c(c1)N(CC(=O)Nc1c(C)cccc1C)C(=O)CO2 | inactive: 1.84%
COc1ccc(OC)c(N(CC(=O)NCc2ccccc2)S(=O)(=O)c2ccccc2)c1 | inactive: -1.34%
CCOC(=O)c1sc2ccccc2c1S(=O)(=O)Nc1ccc(N(C)C)cc1 | inactive: -25.9%
CCOC(=O)c1sc(N2C(=O)c3oc4cc(C)c(C)cc4c(=O)c3C2c2cccc(O)c2)nc1C (stereo not drawn) | inactive: -6.01%
Cc1cc(S(=O)(=O)Nc2cccc(C(=O)O)c2)c(C)c(S(=O)(=O)c2ccccc2)c1 | inactive: 8.85%
COC(=O)c1cc(NC(=O)CCc2c(C)nc3c4c(C)cc(C)nc4nn3c2C)cc(C(=O)OC)c1 | inactive: 9.71%
Cc1ccc(Cn2c(=O)n(CCCCC(=O)NCCc3ccc(Cl)cc3)c(=O)c3ccccc32)cc1 | inactive: 24.9%
CCc1nnc2c(Nc3ccc(Br)c(C)c3)nc3ccccc3n12 | inactive: -0.143%
COc1ccc(S(=O)(=O)N2CCN(c3ccc(F)cc3)CC2)cc1-c1noc(C)n1 | inactive: -4.68%
Cc1cc(C)cc(OCC(=O)NCC(c2ccc(Cl)cc2)N2CCCCC2)c1 (stereo not drawn) | inactive: 6.32%
CC1CCc2c(sc3nnn(Cc4ccc(F)cc4)c(=O)c23)C1 (stereo not drawn) | inactive: -6.59%
Cn1c(=O)c2c(n3c4ccccc4nc13)NC(=O)CC2c1ccccc1F (stereo not drawn) | inactive: -14.3%
